According to the supplement of paper PMC3334620:
Whole data set: some 33,000 sequences, median “E-score (-0.5 to 0.5)” near -0.016, cut for the highest 2% near 0.31. The list shows a part of the results.

Biological target: Cst6 (UniProt P40535)
Experiment: PBM E-score (8-mer binding enrichment) (E-score (-0.5 to 0.5)); higher = stronger / more preferred TF binding; most listed sequences are background and not binding sites
Details: protein concentration: 200 nM; construct: GST-DNA-binding domain
Procedure, shortened: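 For each ungapped eight-base word taken together with its reverse complement, the Universal PBM Analysis Suite assigned an E-score. Binding data came from GST-tagged yeast transcription factors, applied at about 100-200 nM, on universal all-10-mer Agilent arrays made double-stranded by primer extension. Fluorescent anti-GST marked bound protein, and scans were normalised with masliner.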

Sequence	PBM E-score
CTAGAAAC	0.0398
GGTGCCGA	-0.0364
ACGGTCGG	-0.22
TGATCGCA	0.0445
ATCTGACA	-0.0704
AGCTCTCG	-0.109
CCATGTAG	-0.111
AATGCCCT	-0.00456
CAGGTAAC	-0.214
CGTATCTA	0.0238
ACAGAAAC	0.24
CCCTCAAC	-0.209
CGATATCG	0.109
AGATGAGG	-0.0655
AGGAGTGC	-0.274
GAAACCTC	-0.208
AAAGGGGT	-0.132
CCTACTTC	-0.0441
ATATACAC	0.144
AACAACGG	-0.00393
CCGCTCAA	-0.0403
GCCTCCGA	-0.162
ATCAGCGC	0.00885
AGACACTG	-0.103
CTGCATCA	0.225

Sequence	PBM E-score
AGGGGAAG	-0.156
CCTGTGTC	-0.136
CGTAGTAC	0.153
GATCGGGA	-0.301
CTAAATAG	0.00548
AGTCAATG	0.0179
CCAGTTCA	0.0369
GAGGATAC	-0.0323
CCTCAGTA	-0.27
AATCATTA	0.28
CAGGTGGC	-0.0716
ATAGTTGC	0.0857
ACTTGAAT	0.0974
ACCAGCCG	-0.157
CGTAGTCA	0.0217
TACAGAAA	0.161
CGACCTCC	-0.109
CGGTCAAA	0.106
GGAGGAAC	-0.222
ATAAGGCG	0.198
AGCTCAAA	0.103
CGACGTGA	0.0584
ATCTCAAG	-0.0306
AGGCTTGA	0.0376
CAAGACTC	0.0171

Sequence	PBM E-score
CCGGTCAA	-0.0667
CGGCACCC	0.0278
CATCGCGA	-0.0156
AAAAACAA	0.219
CGTCCTCA	-0.13
GGCTGAGA	-0.133
ATGCAGAG	-0.231
ATGGCGAA	0.117
GACAACTC	-0.00913
ACCCCCTC	-0.393
CCATGGTC	-0.281
GTCCATCA	0.0595
GTAAGGCA	0.184
AGGTCCCG	-0.171
CACGGCTG	0.0577
CCCCCGGC	-0.364
ATATGGAG	0.216
GATCCCGA	-0.236
CAGCCCCC	-0.432
CTGGGAGA	-0.226
AGCTGGGG	-0.3
GTACCGAA	-0.18
ACGAATTC	0.07
CGCACCAA	-0.0458
GGGATCGA	-0.0556

Sequence	PBM E-score
ACCGTACC	-0.246
TCCATGAA	0.127
CGAGCAAC	0.0833
GGTTACCA	-0.022
GCCCCCGC	-0.278
ACGGCCAT	-0.158
GACGCTGA	0.119
GCTTGACA	-0.0835
AACTGTGT	0.0284
AGCAAGCA	-0.252
ATTGTTAA	0.0366
CACCGCTA	-0.187
CTGTTAAG	0.0326
GTCGATTA	0.159
TCACGTAA	0.415
CGGCCAAA	0.0839
CGTCACTA	0.459
CCAATCAG	-0.248
AGCGGCAG	-0.0498
CCGTGTTA	0.109
ACCTTTAG	-0.128
ACTAAGGC	0.0517
ATGTACTA	0.00765
CCTGTTAA	-0.0298
ATAGAACA	-0.00601

Sequence	PBM E-score
AAAGGTCT	-0.0315
AGAGTGTA	-0.208
ACGCGGAT	0.16
ATTTCCCG	0.181
TAGAGGAA	-0.0838
ATCACGCA	0.219
AAAGCGCT	0.183
GTAGCGGA	-0.0921
CGTCGGGA	-0.197
CTGGTCGC	-0.216
ATTGGCAA	0.136
CTGGTTAA	0.0494
CCTCTTAG	0.00859
ATGTGGAA	0.136
GGAATAAC	-0.134
CGGCCCAC	-0.154
GGCATCGA	0.00938
CCCTCCGC	-0.291
AATACACA	0.172
ACTTCAGA	0.0307
TAGCGCCA	-0.055
CAACTGAG	-0.00284
GACAACCA	0.0565
CGGTCAAC	-0.0265
AGACGCCG	0.102

Sequence	PBM E-score
GAAGCCGA	0.00104
TAGGGATA	-0.00602
ACGTGTGA	0.17
ATAACGCC	0.253
ACTGTTCG	0.0374
ATCGCGTA	0.124
AACTCTTC	-0.178
TAAACGTA	0.188
AACCGGTG	-0.163
ACCTATGG	-0.0155
CTATCCCA	-0.121
GAGAAACC	-0.208
AGACGAGG	-0.287
CCTCCTTA	-0.202
AGTAATTA	0.175
CGGGAATC	-0.251
GCTGGGCC	-0.353
TATTCACA	0.101
CACTCGCG	0.0405
TAGTTTGA	0.0422
CTCGTACA	-0.0362
GTCCGGGA	0.0127
ATAATTCC	0.181
ACCTACCC	-0.276
ATCTCACA	0.0693

Sequence	PBM E-score
CCAATATC	0.0205
CCTCACGA	-0.148
TGCGAAAA	0.215
TAACATTA	0.0995
AGCAAAGC	-0.0555
GGTTCTCA	0.0118
CACTTCGG	0.118
AGTGGCAG	-0.00336
ATTATATG	0.306
CTCAATGA	0.14
CCCCGTAG	-0.217
CGTGCGAC	0.0141
TAGGACCA	-0.232
CATCCAAA	0.0363
CCTCTCAG	-0.391
GACTCCGC	-0.204
GGCGCTAA	0.0329
CTTTGCAA	-0.0189
ACCGGAAC	-0.0572
ACCCGTTG	-0.244
AGACGTTG	-0.055
AGTAGTTC	0.122
